39 variants from the RNAGym collection of RNA variant scans (doi:10.7554/elife.90254) can be followed below.

The source gives no read counts; variants with many changes may rest on few reads.

The chains are these.
B1: LINE1-full (parent)
chain: UACGUAGGUGGUUUUCCCCUGAUAGUGCUAAGGGGGCCUGGAAGUUUGGACUGGGCAGAGCUCAACACAGCGUGGCAAAGUGGCUGUGGCUAGACUGCCUCUCUGGAUUCCUCGUCACUCAGCAGGGCAUCUCUGAGAGAAAUGCC

This series covers variants of B1. Put plainly: self-cleavage, relative activity (ratio to wild type); higher = more cleavage; in vitro, sequencing; the parent is a self-cleaving ribozyme.
Turning to UACGUAGGUGGUUUUCCCCUGAUAGUGCUAAGGGGGCCUGGAAGUUUGGACUGGGCAGGGCUCAACACAGAGUGGCAAAGUGGCUGUGGCUAGACCGCCUCUCUGGAUUCCUCGUCACUCAGCAGGGCAUCUCUGAGAGAAAUGCC, the self-cleavage turned out to be 0.02.
The result for UACGUAGGUGGUUUUCCCCUGAUAGUGCUAAGGGGGCCUGGAAGUUUGGACUGGGCAGGGCUCAACACAGCGUGGCAAAGUGGCUGUGGCUAGACUGCCUCUCUGGAUUCCUCGUCACUCAGCACAGCAUCUCUGAGAGAAAUGCC reads 0.07; that for UACGUAGGUGGUUUUCCCCUGAUAGUGCUAAGGGGGCCUGGAAGUUUGGACUGGGCAGUGCUCAACACAGCGUGGCAAAGUGGCUGUGGCUAGACUGUCUCUCUGGAUUCCUAGUCACUCAGCAGGGCAUCUCUGAGAGAAAUGCC, 0.36; that for UACGUAGGUGGUUUUCCCCUGAUAGUGCUAAGGGGGCCUGGAAGUUUGGACUGGGCAGGGCUCAACACAGCGUGGCAAAGUGGCUGUGGCUAGACUGCCUCUCCGGAUUCCUCGUCACUCAGCAGGGCAUCUCUGAGGGAAAUGCC, 0.14.
As for UACGUAGGUGGUUUUCCCCUGAUAGUGCUAAGGGGGCCUGGAAGUUUGGACUGGGCAGGGCUCAACACAGCGUGGCAAAGUGGCUGUGGCUAGACUGCCCCUCUGGAUUCCUCGUCACUCAGCAGGGCAUCUCUGAGAGGGAUGCC, the figure is 0.16; as for UACGUAGGUGGUUUUCCCCUGAUAGUGCUAAGGGGGCCUGGAAGUUUGGACUGGGCAGGGCUCAACACAGCGUGGCAAAGUGGCUGUGGCUAGACUGCCUCUCUGGAUUCCUCGUCACUCAGCAGGGCAUCCCAGAGAGAAAUGCC, 0.1; as for UACGUAGGUGGUUUUCCCCUGAUAGUGCUAAGGGGGCCUGGAAGUUUGGACUGGGCAGGGCUCAACACAGCGUGGCAAAGUGGCCGUGGCUAGACUGCCUCUCUGGAUUCCUCGUCACUCAGCAGGGCAUCUCUGAGUGAAAUGCC, 0.
As for UACGUAGGUGGUUUUCCCCUGAUAGUGCUAAGGGGGCCUGGAAGUUUGGACUGGGCAGGGCUCAACACAGCGUGGCAAAGUGGCUGUGGCUAGACUGCCUCUCCGGAUUCCUCGUCACUCAGCAGGGCAUCCCUGAGAGAAAUGCC, the figure is 0.54; as for UACGUAGGUGGUUUUCCCCUGAUAGUGCUAAGGGGGCCUGGAAGUUUGGACUGGGCAGGGCUCAACACAGCGUGGCAAAGUAGCUGUGGCUAGGCUGCCUCUCUGGAUUCCUCGUCACUCAGCAGGGCAUCUCAGAGAGAAAUGCC, 0.26; as for UACGUAGGUGGUUUUCCCCUGAUAGUGCUAAGGGGGCCUGGAAGUUUGGACUGGGCAGUGCUCAACACAGCGUGGCAAAGUGGCUGUGGCUAGACUGCCUCUCUGGAUUCCUCGUCAUUCUGCAGGGCAUCUCUGAGAGAAAUGCC, 0.83.
In the case of UACGUAGGUGGUUUUCCCCUGAUAGUGCUAAGGGGGCCUGGAAGUUUGGACUGGGCAGGGCUCAACACAGCGUGGCAAAGUGGCUGCGGCUAGACUGCCUCUCUGGAUUCCUCGUCACCCAGCAGGGCAUCUCUGAGAGAAAUGCC, the self-cleavage worked out at 0.
UACGUAGGUGGUUUUCCCCUGAUAGUGCUAAGGGGGCCUGGAAGUUUGGACUGGGCAGGGCUCAACACAGCGAGGCAAAGUGGCUGUGGCUAGACUGCCUCUCUGGGUUCCACGUCACUCAGCAGGGCAUCUCUGAGAGAAAUGCC: the self-cleavage worked out at 0.27.
The result for UACGUAGGUGGUUUUCCCCUGAUAGUGCUAAGGGGGCCUGGAAGUUUGGACUGGGCAGGGCUCAACACAGUGUGGCAAAGUGGCUGUGGCUAGACUGCCCCUCUGGAUUCCUCGUCACUCAGCAGGGCAUCUCUGAGAGAAAUGCC reads 0.11.
The result for UACGUAGGUGGUUUUCCCCUGAUAGUGCUAAGGGGGCCUGGAAGUUUGGACUGGGCAGGGCUCAACACAGCGUGGCAAAGUGGCUGUGGCUAGACUGCCUCUCUGGAUUCCUCGUCACUCAGCAGGGCGUCUCUGUGAGAAAUGCC reads 0.08; that for UACGUAGGUGGUUUUCCCCUGAUAGUGCUAAGGGGGCCUGGAAGUUUGGACUGGGCAGGGCUCAACACAGCGUGGCAAAGUGGCUGUGGCUAGACUGCCUCUCUGGAUUCCUCGCCACUCAGCAGGGCAUCUCUGAGAGAACUGCC, 0.14; that for UACGUAGGUGGUUUUCCCCUGAUAGUGCUAAGGGGGCCUGGAAGUUUGGACUGGGCAGGGCCCAACACAGCGAGGCAAAGUGGCUGUGGCUAGACUGCCUCUCUGGAUUCCUCGUCACUCAGCAGGGCAUCUCUGAGGGAAAUGCC, 0.16.
The result for UACGUAGGUGGUUUUCCCCUGAUAGUGCUAAGGGGGCCUGGAAGUUUGGACUGGGCAGGGCUCAACACAGCGUGGCAAAGUGGCUGUGGCUAGACUGCCUCUCUGGAUUCCUCGUCACUCAGCAGGGCCUCUCUGAGAGGAAUGCC reads 0.05; that for UACGUAGGUGGUUUUCCCCUGAUAGUGCUAAGGGGGCCUGGAAGUUUGGACUGGGCAGGGCUCAACACAGCGUGGCAAAGUGGCUGUGGCUAGACUGCCUCUCUGGAUUCCUCGACACUCAGCAGGGCAUCUCUGAGAGAAGUGCC, 0.1.
UACGUAGGUGGUUUUCCCCUGAUAGUGCUAAGGGGGCCUGGAAGUUUGGACUGGGCAGGGCUCAACACAGCGCGGCAAAGUGGCUGUGGCUAGACAGCCUCUCUGGAUUCCUCGUCACUCAGCAGGGCAUCUCUGAGAGAAAUGCC: the self-cleavage was 0.08.
The result for UACGUAGGUGGUUUUCCCCUGAUAGUGCUAAGGGGGCCUGGAAGUUUGGACUGGGCAGUGCUCAACACAGCGUGGCAAAGUGGCUGUGGCUAGGCUGCCUCUCUGGAUUCCUCGUCACUCAGCAGGGCAUCUCUGGGAGAAAUGCC reads 2.14; that for UACGUAGGUGGUUUUCCCCUGAUAGUGCUAAGGGGGCCUGGAAGUUUGGACUGGGCAGGGCUCAACACAGCGUGGCAAAGUGGCUGUGGCUAGACUGCCUCUCUGGAUUCCUCGUCACCCAGCAGGGCAUCUCCGAGAGAAAUGCC, 0.
The result for UACGUAGGUGGUUUUCCCCUGAUAGUGCUAAGGGGGCCUGGAAGUUUGGACUGGGCAGGGCUCAACACAGCGUGGCAAAGUGGCAGUGGCUAGACAGCCUCUCUGGAUUCCUCGUCACUCAGCAGGGCAUCUCUGAGAGAAAUGCC reads 0.09; that for UACGUAGGUGGUUUUCCCCUGAUAGUGCUAAGGGGGCCUGGAAGUUUGGACUGGGCAGGGCUCAACACAGCGUGGCAAAGUGGCUGUGGCUAGACUGCUUCUCUGGACUUCUCGUCACUCAGCAGGGCAUCUCUGAGAGAAAUGCC, 0.01; that for UACGUAGGUGGUUUUCCCCUGAUAGUGCUAAGGGGGCCUGGAAGUUUGGACUGGGCAGGGCUCAACACAGCGUGGCAAAGUGGCUGUGGCUAGACUGCCUCUCUGGAUUCCUCGUCACUCGGCAGGGCAUCUCUGAGAUAAAUGCC, 0.06.
As for UACGUAGGUGGUUUUCCCCUGAUAGUGCUAAGGGGGCCUGGAAGUUUGGACUGGGCAGGGCUCAACACAGCGUGGCAAAGUGGCUGUGGAUAGACUGCCUCUCUGGAUUCCUCGUCACUCAGCAGGGCAUCUCUGAGAGGAAUGCC, the figure is 0.04.
On to UACGUAGGUGGUUUUCCCCUGAUAGUGCUAAGGGGGCCUGGAAGUUUGGACUGGGCAGUGCUCAACACAGCGUGGCAAAGUGGCUGUGGCUAGACUGCCUCUCUGGAUUCCUCGUAACUCAGCAGGGCAUCUCUGAGAGGAAUGCC, for which the self-cleavage was determined as 0.6.
As for UACGUAGGUGGUUUUCCCCUGAUAGUGCUAAGGGGGCCUGGAAGUUUGGACUGGGCAGUGCUCUACACAGCGUGGCAAGGUGGCUGUGGCUAGACUGCCUCUCUGGAUUCCUCGUCACUCAGCAGGGCAUCUCUGAGAGAAAUGCC, the figure is 0.68; as for UACGUAGGUGGUUUUCCCCUGAUAGUGCUAAGGGGGCCUGGAAGUUUGGACUGGGCAGUGCUCAGCACAGCGUGGCAAAGCGGCUGUGGCUAGACUGCCUCUCUGGAUUCCUCGUCACUCAGCAGGGCAUCUCUGAGGGAAAUGCC, 0; as for UACGUAGGUGGUUUUCCCCUGAUAGUGCUAAGGGGGCCUGGAAGUUUGGACUGGGCAGGGCUCAACACAGCGUGGCAAAGUGGCAGUGGCUAGACUGCCUCUCUGGAUUCCUCGUCACUCAGCAGGGCCUCUCUGAGGGAAAUGCC, 0.
As for UACGUAGGUGGUUUUCCCCUGAUAGUGCUAAGGGGGCCUGGAAGUUUGGACUGGGCAGGGCCCAACACAGCGUGGCAAAGUGGCUGUGGCUAGACUGCCUCUCUGGGUUCCUCGUCACUCAGCAGGGCAUCUCUGAGAGAAAUGCC, the figure is 0; as for UACGUAGGUGGUUUUCCCCUGAUAGUGCUAAGGGGGCCUGGAAGUUUGGACUGGGCAGUGUUCGACACGGCGUGGCAAAGUGGCUGUGGCUAGACUGCCUCUCCGGAUUCCACGUCACUCAGCAGGGCAUCUCUGAGAGAAAUGCC, 0.19.
As for UACGUAGGUGGUUUUCCCCUGAUAGUGCUAAGGGGGCCUGGAAGUUUGGACUGGGCAGGGCUCAACACAGCGUGGCAAAGUGGCUGUGGCUAGACUGCCUCUCCGGAUUCCCCGUCACUCAGCAGGGCAUCUCUGAGAGAAAUGCC, the figure is 0.29; as for UACGUAGGUGGUUUUCCCCUGAUAGUGCUAAGGGGGCCUGGAAGUUUGGACUGGGCAGGGCUCAACACAGCGCGGCAAAGUGGCUGUGGCUAGACUGCCUCUCUGGAUUACUCGUCACUCAGCAGGGCAUCUCAGAGAGAAAUGCC, 0.
Consider UACGUAGGUGGUUUUCCCCUGAUAGUGCUAAGGGGGCCUGGAAGUUUGGACUGGGCAGGGCUCAACACAGCGUGGCAAAGUGGCUGUGGCUAGACUGCCUCUCAGGAUUCCUCGUCACUCAGCAGGGCAUCUCCGAGAGAAAUGCC, for which the self-cleavage amounted to 0.07.
The result for UACGUAGGUGGUUUUCCCCUGAUAGUGCUAAGGGGGCCUGGAAGUUUGGACUGGGCAGGGCCCAACACAGCGUGGCAAAGAGGCUGUGGCUAGACUGCCUCUCUGGAUUCCUCGUCACUCAGCAGGGCAUCUCAGAGAGAAAUGCC reads 0.09.
The result for UACGUAGGUGGUUUUCCCCUGAUAGUGCUAAGGGGGCCUGGAAGUUUGGACUGGGCAGUGCUCAACACAGCGUGGCGAAGUGGCUGUGGCCAGACUGCCUCUCUGGAUUCCUCGUCACUCAGCAGGGCAUCUCUGGGAGAAAUGCC reads 0.84; that for UACGUAGGUGGUUUUCCCCUGAUAGUGCUAAGGGGGCCUGGAAGUUUGGACUGGGCAGGGCUCAACACAGCGUGGCAAAGUGGCUGUGGCUAGACUGCCUCUAUGGAUUCCUCGUCACUCAGCAGGGCUUCUCUGAGAGAAAUGCC, 0.12; that for UACGUAGGUGGUUUUCCCCUGAUAGUGCUAAGGGGGCCUGGAAGUUUGGACUGGGCAGGGCUCAACACAGCGUGGCAAAGUGGCUGUGGCUAGACUGCCUCUCUGGACUCCUCGUCACUCAGCAGGGCAUCUCUGAGGGAAAUGCC, 0.12.
On to UACGUAGGUGGUUUUCCCCUGAUAGUGCUAAGGGGGCCUGGAAGUUUGGACUGGGCAGUGCUCAAUACAGCGUGGCUAAGUGGCUGUGGCUAGACUGUCUCUCUGGAUUCCUCGUCACUCAGCAGGGCAUCUCUGAGAGAAAUGCC, for which the self-cleavage stood at 0.03.
